The source of these data is PMC4336329 (PLoS ONE, 2015).

Out of some 310,000 compounds screened, about 2,200 (0.71%) showed an effect of 50% or more. Effects have a minus sign here. This is one part of the list.

human ether-à-go-go-related gene (hERG) potassium channel, sequence (Q12809 whole entry, looked up): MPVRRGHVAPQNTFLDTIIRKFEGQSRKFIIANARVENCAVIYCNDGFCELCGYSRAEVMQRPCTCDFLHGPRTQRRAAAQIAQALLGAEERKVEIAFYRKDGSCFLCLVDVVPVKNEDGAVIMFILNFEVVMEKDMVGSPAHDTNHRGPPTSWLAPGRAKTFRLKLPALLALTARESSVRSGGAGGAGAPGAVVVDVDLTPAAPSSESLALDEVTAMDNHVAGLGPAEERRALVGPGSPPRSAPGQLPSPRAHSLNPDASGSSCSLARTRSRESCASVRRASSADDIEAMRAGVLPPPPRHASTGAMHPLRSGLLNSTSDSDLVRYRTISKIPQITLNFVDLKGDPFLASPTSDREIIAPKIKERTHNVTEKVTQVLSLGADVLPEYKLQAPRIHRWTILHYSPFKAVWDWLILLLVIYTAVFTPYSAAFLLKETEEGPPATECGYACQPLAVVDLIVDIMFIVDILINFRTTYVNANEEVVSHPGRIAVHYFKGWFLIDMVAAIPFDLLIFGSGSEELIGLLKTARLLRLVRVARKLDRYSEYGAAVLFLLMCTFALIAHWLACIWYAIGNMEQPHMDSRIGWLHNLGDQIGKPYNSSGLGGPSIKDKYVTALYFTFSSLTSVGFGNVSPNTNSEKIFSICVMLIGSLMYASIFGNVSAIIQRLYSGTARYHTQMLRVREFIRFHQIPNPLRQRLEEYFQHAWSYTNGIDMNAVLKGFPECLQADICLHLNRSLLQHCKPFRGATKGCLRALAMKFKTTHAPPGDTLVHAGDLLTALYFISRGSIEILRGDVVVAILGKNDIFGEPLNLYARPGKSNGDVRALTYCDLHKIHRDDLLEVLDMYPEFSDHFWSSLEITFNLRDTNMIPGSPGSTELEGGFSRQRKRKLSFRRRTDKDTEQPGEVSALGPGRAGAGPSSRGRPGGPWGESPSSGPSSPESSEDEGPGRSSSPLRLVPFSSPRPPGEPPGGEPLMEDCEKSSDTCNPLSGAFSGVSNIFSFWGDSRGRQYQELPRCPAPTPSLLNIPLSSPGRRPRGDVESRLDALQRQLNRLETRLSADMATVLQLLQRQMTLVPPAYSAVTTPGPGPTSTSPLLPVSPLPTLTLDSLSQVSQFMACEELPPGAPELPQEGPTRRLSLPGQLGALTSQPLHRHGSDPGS

This test concerns the target human ether-à-go-go-related gene (hERG) potassium channel (human, UniProt Q12809). Description: primary screen, population patch clamp on CHO cells stably expressing hERG.
Consider `Cc1cccc(OCc2nnc(SCC(=O)N3CCCC3)o2)c1`, for which the “hERG current change (%, negative = inhibition) at 1uM” value is recorded as 7.81%.

Turning to `Cc1nn(CC(=O)Nc2ccc3c(c2)oc2ccccc23)c(=O)c2ccccc12`, the “hERG current change (%, negative = inhibition) at 1uM” value turned out to be 11.6%.

For the compound `CSc1nc(O)c(Cc2ccccc2)c(=O)[nH]1`, the “hERG current change (%, negative = inhibition) at 1uM” value is 10.8%.

`Cc1ccc(C)c(S(=O)(=O)N2CCN(C(C)C(=O)Nc3ccccc3-c3ccccc3)CC2)c1` (stereo not shown): the “hERG current change (%, negative = inhibition) at 1uM” value is reported as 3.23%.

With `Cc1nc(NC(=S)NC(=O)COc2ccccc2Cl)ccc1Br`, the “hERG current change (%, negative = inhibition) at 1uM” value is listed as 3%.

Turning to `O=C(NCCCCc1ccccc1)C12CN(Cc3ccccc3)CC1C(c1ccc([N+](=O)[O-])cc1)=NO2` (stereo not shown), the “hERG current change (%, negative = inhibition) at 1uM” value is 14.9%.

For `COc1cc(-n2c(C)nc3cc(C(=O)NCc4ccco4)ccc32)cc(OC)c1OC`, the “hERG current change (%, negative = inhibition) at 1uM” value worked out at 4.74%.

Turning to `COc1cc(C)nc(NS(=O)(=O)c2ccccc2)n1`, the “hERG current change (%, negative = inhibition) at 1uM” value is 12.9%.

With `CC(=O)N1CCC(Nc2ccc(C)cc2)CC1`, the “hERG current change (%, negative = inhibition) at 1uM” value came to 11.2%.

As for `CCCCCCC1C(C#N)=C(N)OC2=C1C(=O)CC(C)(C)C2` (stereo not shown), the “hERG current change (%, negative = inhibition) at 1uM” value was 9.9%.

Take `C=CCOc1ccc(C2NC(=O)c3ccccc3O2)cc1` (stereo not shown): the “hERG current change (%, negative = inhibition) at 1uM” value was 10.5%.

As for `CC12CCC(C(=O)NNc3ccccc3)(C(=O)C1=O)C2(C)C` (stereo not shown), the “hERG current change (%, negative = inhibition) at 1uM” value is recorded as 16.6%.

For `O=S(=O)(NCC1CCCN(Cc2ccccc2)C1)c1cccc2cccnc12` (stereo not shown), the “hERG current change (%, negative = inhibition) at 1uM” value amounted to 4.57%.

`O=C(CSc1nc2ccccc2c(=O)n1-c1ccccc1Cl)NCC1CCCO1` (stereo not shown): the “hERG current change (%, negative = inhibition) at 1uM” value was 7.02%.

`CCOc1ccccc1NC(=O)Cn1c(C)cc(COC)c(C#N)c1=O`: the “hERG current change (%, negative = inhibition) at 1uM” value worked out at 14.8%.

In the case of `C[n+]1c2n(c3ccccc31)N=C(c1ccc(Cl)cc1)CS2.[Br-]`, the “hERG current change (%, negative = inhibition) at 1uM” value is on record as -51.9%.

As to `C=CCn1c(C)cc(C(=O)COC(=O)c2ccc3c(c2)NC(=O)CS3)c1C`, the “hERG current change (%, negative = inhibition) at 1uM” value was found to be 7.16%.

Regarding `CC1CN(C)C(c2ccccc2)C(C)C12NC(=O)NC2=O` (stereo not shown), the “hERG current change (%, negative = inhibition) at 1uM” value came out at 11.4%.

`Cc1nc2ccc(S(=O)(=O)NC(C(=O)NCc3cccs3)C(C)C)cc2s1` (stereo not shown): the “hERG current change (%, negative = inhibition) at 1uM” value turned out to be 11.4%.

In the case of `O=S1(=O)[C@H]2C[C@@H]3C=C[C@@]2(CN1Cc1cccc(F)c1)O3`, the “hERG current change (%, negative = inhibition) at 1uM” value is on record as 11.9%.

Regarding `CC1CC1C(=O)OCC(=O)Nc1cccc([N+](=O)[O-])c1` (stereo not shown), the “hERG current change (%, negative = inhibition) at 1uM” value stood at 8.69%.

With `COc1ccc(Nc2nccc(-c3ccc([N+](=O)[O-])cc3)n2)cc1`, the “hERG current change (%, negative = inhibition) at 1uM” value was 15.8%.

For `CCOC(=O)c1c(C)n(C)c2ccc(O)c(CN3CCCCC3)c12`, the “hERG current change (%, negative = inhibition) at 1uM” value is on record as -6.48%.

For the compound `Cc1ccc(S(=O)(=O)Nc2ccc(C(=O)NCc3ccncc3)cc2)cc1`, the “hERG current change (%, negative = inhibition) at 1uM” value was 9.82%.

Consider `Cc1ccc2oc(C(=O)N3CCC(O)(c4cccc(C(F)(F)F)c4)CC3)c(C)c2c1`, for which the “hERG current change (%, negative = inhibition) at 1uM” value was 10.7%.

Regarding `Cn1c(C(=O)O)ccc1S(=O)(=O)N(Cc1ccccc1)Cc1ccccc1`, the “hERG current change (%, negative = inhibition) at 1uM” value amounted to 11.2%.

As to `Cc1noc(C)c1CSc1nc2ccccc2nc1NS(=O)(=O)c1ccc(Cl)cc1`, the “hERG current change (%, negative = inhibition) at 1uM” value is 10.4%.

As for `COc1ccc(C(=O)CSc2nnc3n2CCCN3C(=O)Nc2ccccc2)cc1`, the “hERG current change (%, negative = inhibition) at 1uM” value turned out to be 11.4%.

Consider `N#CCC(=O)N/N=C/c1ccc(OCC(=O)Nc2ccc(F)cc2)cc1`, for which the “hERG current change (%, negative = inhibition) at 1uM” value is recorded as 8.06%.

Turning to `NC(=O)CC(NC(=O)c1cccc(Br)c1)c1ccc(N2CCC(N3CCCC3)CC2)c([N+](=O)[O-])c1` (stereo not shown), the “hERG current change (%, negative = inhibition) at 1uM” value is on record as 5.16%.

For the compound `O=C(c1ccco1)N1CCN(C(=O)c2cc(-c3ccccn3)nc3ccccc23)CC1`, the “hERG current change (%, negative = inhibition) at 1uM” value is listed as -11.2%.

Take `Cc1ccccc1N(CC(=O)N1CCN(c2ccccc2)CC1)S(C)(=O)=O`: the “hERG current change (%, negative = inhibition) at 1uM” value is given as 2.16%.

With `Cn1c(CN2CCCCC2)c(C#N)c2ccccc21`, the “hERG current change (%, negative = inhibition) at 1uM” value amounted to 1.87%.

As for `CN=C(Nc1ccccc1)SC1CC(=O)N(c2ccc(C(=O)OC)cc2)C1=O` (stereo not shown), the “hERG current change (%, negative = inhibition) at 1uM” value is 11.3%.

`Cc1nn(Cc2ccccc2)c(C)c1NC(=O)c1noc2c1CCc1ccccc1-2`: the “hERG current change (%, negative = inhibition) at 1uM” value came out at 2.04%.

For the compound `CCCNC(=O)COc1cccc(C(=O)NCc2ccccc2)c1`, the “hERG current change (%, negative = inhibition) at 1uM” value came out at 6.04%.

As to `CC(C)c1ccc(NC(=O)CSc2nc3ncccc3[nH]2)cc1`, the “hERG current change (%, negative = inhibition) at 1uM” value is listed as 12%.

For `COC(=O)[C@H](C)NC(=O)NCc1ccccc1`, the “hERG current change (%, negative = inhibition) at 1uM” value is reported as 4.6%.

As for `Cc1ccccc1NC1=NCC(C)S1` (stereo not shown), the “hERG current change (%, negative = inhibition) at 1uM” value amounted to 1.59%.

Turning to `C=CCOC(=O)C1=C(C)OC(N)=C(C(=O)OCC)C12C(=O)N(CC(N)=O)c1ccccc12` (stereo not shown), the “hERG current change (%, negative = inhibition) at 1uM” value is 0.391%.

Regarding `C=CCN1C(=O)/C(=C2/Sc3ccc(OC)cc3N2C)SC1=Nc1ccc(OC)cc1`, the “hERG current change (%, negative = inhibition) at 1uM” value was determined as 10.5%.

`O=C(NCCCN1CCOCC1)c1cc(-c2ccc(F)cc2)on1`: the “hERG current change (%, negative = inhibition) at 1uM” value is on record as -8.44%.

On to `Cc1onc(-c2ccccc2Cl)c1C(=O)Nc1ccc(CN2CCCC2)cc1`, for which the “hERG current change (%, negative = inhibition) at 1uM” value is 10.8%.
